The campaign covered roughly 310,000 compounds. About 2,200 (0.71%) showed an effect of 50% or more. Effects have a minus sign here. The list shows a part of the results.

Here are results for 58 compounds from paper PMC4336329 (PLoS ONE, 2015).

The target of this experiment is human ether-à-go-go-related gene (hERG) potassium channel (human, UniProt Q12809). The experiment in a line: primary screen, population patch clamp on CHO cells stably expressing hERG.
Sequence of human ether-à-go-go-related gene (hERG) potassium channel (Q12809 whole entry, looked up): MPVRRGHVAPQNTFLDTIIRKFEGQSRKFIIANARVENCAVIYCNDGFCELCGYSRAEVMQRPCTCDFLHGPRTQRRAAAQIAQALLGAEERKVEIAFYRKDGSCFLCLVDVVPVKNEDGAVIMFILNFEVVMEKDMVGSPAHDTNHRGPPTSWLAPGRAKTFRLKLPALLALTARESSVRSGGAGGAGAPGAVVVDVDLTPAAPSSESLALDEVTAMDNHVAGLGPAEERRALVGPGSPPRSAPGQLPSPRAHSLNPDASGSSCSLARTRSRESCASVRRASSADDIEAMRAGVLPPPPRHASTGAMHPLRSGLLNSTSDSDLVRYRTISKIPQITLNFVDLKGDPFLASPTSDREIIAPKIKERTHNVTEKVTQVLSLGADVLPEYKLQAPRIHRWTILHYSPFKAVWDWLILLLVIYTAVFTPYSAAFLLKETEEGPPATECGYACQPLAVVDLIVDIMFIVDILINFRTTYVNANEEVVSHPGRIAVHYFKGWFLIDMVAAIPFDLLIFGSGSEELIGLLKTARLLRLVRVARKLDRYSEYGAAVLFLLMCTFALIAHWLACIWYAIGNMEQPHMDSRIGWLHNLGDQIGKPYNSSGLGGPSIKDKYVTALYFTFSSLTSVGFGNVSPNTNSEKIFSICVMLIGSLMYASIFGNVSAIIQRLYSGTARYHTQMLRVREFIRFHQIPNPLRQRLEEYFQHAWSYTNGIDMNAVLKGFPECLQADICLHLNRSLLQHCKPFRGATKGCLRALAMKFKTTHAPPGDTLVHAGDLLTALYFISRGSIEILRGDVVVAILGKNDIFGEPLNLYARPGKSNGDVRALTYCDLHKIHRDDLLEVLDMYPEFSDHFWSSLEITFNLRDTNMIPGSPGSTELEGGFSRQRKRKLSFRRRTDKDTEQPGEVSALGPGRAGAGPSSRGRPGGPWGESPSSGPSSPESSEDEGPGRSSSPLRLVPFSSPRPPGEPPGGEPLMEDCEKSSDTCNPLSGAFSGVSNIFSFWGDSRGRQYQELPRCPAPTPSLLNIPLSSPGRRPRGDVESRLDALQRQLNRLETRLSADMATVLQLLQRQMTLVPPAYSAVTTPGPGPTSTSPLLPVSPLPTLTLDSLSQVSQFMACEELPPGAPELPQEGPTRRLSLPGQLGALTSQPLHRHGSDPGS
For `COc1ccc(S(=O)(=O)N2CCC(C(=O)N3CCOCC3)CC2)cc1`, the “hERG current change (%, negative = inhibition) at 1uM” value stood at 11.4%.
The figure for `O=C(O)C(O)Cc1c[nH]c2ccccc12` (stereo not shown) is 14%.
The figure for `CS(=O)(=O)N(CC(=O)NC1CC2CCC1C2)c1ccc(Oc2ccccc2)cc1` (stereo not shown) is 9.57%; for `O=C(COc1ccc(S(=O)(=O)NCc2ccccc2)cc1Cl)NCC1CCCO1` (stereo not shown) it is -15.8%.
Take `O=C(Oc1ccc(Br)cc1C(=S)N1CCOCC1)c1ccc([N+](=O)[O-])cc1[N+](=O)[O-]`: the “hERG current change (%, negative = inhibition) at 1uM” value is listed as 9.22%.
The figure for `CN1CCN(CCCCOc2cccc3ccccc23)CC1.Cl` is 4.07%; for `O=C(CS(=O)(=O)Cc1ccccc1)Nc1ccc(Cl)cn1` it is 2.58%; for `CC(C)=N/N=C1\NC(=O)C(C)S1` (stereo not shown) it is 9.38%.
As for `O=C(COC(=O)CCc1ccc(S(=O)(=O)N2CCCCC2)cc1)Nc1cccc2ccccc12`, the “hERG current change (%, negative = inhibition) at 1uM” value is listed as -5.31%.
In the case of `COc1ccccc1-c1c(C)oc2c(CN3CCCCC3C)c(O)ccc2c1=O` (stereo not shown) it was 6.58%; in that of `CCOC(=O)N1CCN(C(=O)CSc2nc(-c3cccc(C)c3)ns2)CC1`, 9.77%.
Take `COC(CCN(C)C)(c1ccccc1)c1ccccc1`: the “hERG current change (%, negative = inhibition) at 1uM” value is recorded as 10.4%.
In the case of `CCCCCSc1nc(N2CCOCC2)c2c(c1C#N)CC(C)(C)OC2` it was 5.34%; in that of `COc1ccc(C(CC(=O)c2ccccc2)C2CCCCC2=O)cc1` (stereo not shown), 5.25%.
In the case of `COC(=O)COc1ccc(S(=O)(=O)NCc2cccnc2)cc1C` it was 14.5%.
`O=[N+]([O-])c1ccc(Oc2ccc(S(=O)(=O)N3CCCCC3)cc2)cc1`: the “hERG current change (%, negative = inhibition) at 1uM” value is -4.52%.
In the case of `CCCCN1C(=O)C(=O)N(CC(=O)Nc2cc(OCC)c(N3CCOCC3)cc2OCC)C1=O` it was 1.17%; in that of `O=C(Nc1ccc(Br)cc1)c1ccc2ncsc2c1`, 9.89%.
In the case of `CCCCC1CCC(C(=O)Nc2ccc(N3CCOCC3)cc2N2CCOCC2)CC1` (stereo not shown) it was 4.2%; in that of `S=C(NC1CCCC1)N1CCN(c2ncccn2)CC1`, 6.59%; in that of `COc1ccc([N+](=O)[O-])cc1NC(=S)NC(=O)C(C)(C)C`, 13%.
Turning to `COC(=O)c1[nH]c2cc(OC)ccc2c1NC(=O)c1c(F)cccc1F`, the “hERG current change (%, negative = inhibition) at 1uM” value was determined as 11.3%.
The figure for `Cc1ccc(CN2C(=O)CNC2=S)cc1` is 7.76%; for `Cn1cc(C(=O)Nc2ccc(Cl)c(Cl)c2)cn1` it is -0.514%.
The figure for `c1cn(-c2ncnc3sc4c(c23)CCCC4)cn1` is 2.4%; for `C=CCNC(=O)c1onc(CSc2cccc3ccccc23)c1C(=O)O` it is 14.6%.
As for `COC(=O)Cc1ccc(OC(=O)CCS(=O)(=O)c2ccc(Cl)cc2)cc1`, the “hERG current change (%, negative = inhibition) at 1uM” value was found to be 21%.
In the case of `O=C(CN1C(=O)/C(=C/c2ccccc2F)Sc2ccccc21)NCc1cccnc1` it was 4.27%.
In the case of `CC(C)(CNC(=O)CCC1CCCC1)CNC(=O)CCC1CCCC1` it was 6.33%; in that of `O=C(c1ccc(N2CCOCC2)c([N+](=O)[O-])c1)N1CCCC(C(F)(F)F)C1` (stereo not shown), 12.3%; in that of `Cc1cc(OC(=O)c2ccc3ccccc3c2)c([N+](=O)[O-])c(=O)[nH]1`, 17.3%.
In the case of `Cc1ccc(C(=O)Nc2ccccc2N2CCCCC2)cc1[N+](=O)[O-]` it was 4.65%; in that of `CC1(C)CN=C(Nc2nc3ccccc3s2)S1`, -1.46%; in that of `NC1=NC(=Nc2ccccc2)c2ccccc21`, 10.5%.
As to `Cc1cc(C)cc(OCC(=O)O/N=C(\N)c2ccccn2)c1`, the “hERG current change (%, negative = inhibition) at 1uM” value is recorded as -1.71%.
In the case of `O=C(CSc1ncnc2c1cnn2-c1ccc(F)cc1)NCC1CCCO1` (stereo not shown), the “hERG current change (%, negative = inhibition) at 1uM” value was 13.3%.
The figure for `O=C1NC(=O)C(=Cc2ccc(Sc3ccccc3)o2)C(=O)N1` is 11.9%; for `COc1ccc(C2C(C#N)=C(C)NC(C)=C2C#N)c(OC)c1` it is 1.41%; for `CCCOc1ccc(CNC(=S)NCc2ccc(OC(C)C)cc2)cc1` it is 2.6%.
In the case of `CN(CCO)c1ccc(/C=N/Nc2nncc3ccccc23)cc1` it was 9.07%.
The figure for `Cc1cc(C)c(S(=O)(=O)N2CCCOC2CNC(=O)C(=O)NCc2ccccn2)c(C)c1` (stereo not shown) is 6.84%.
Consider `COc1ccccc1-c1nnc(C2CCN(S(=O)(=O)c3ccccc3[N+](=O)[O-])CC2)o1`, for which the “hERG current change (%, negative = inhibition) at 1uM” value is reported as -12.7%.
In the case of `CCn1c(=O)c(C(=O)NNC(=O)c2ccccc2Cl)c(O)c2ccccc21` it was 11%; in that of `O=C(NCCCN1CCCC1)C1CCC(=O)N1C1CCCCC1` (stereo not shown), 11.9%.
The figure for `Cc1cc(=O)oc2cc(OCC(O)Cn3ccnc3)ccc12` (stereo not shown) is 11.8%.
In the case of `COc1ccc(CNC(=O)CN(C(=O)CCC(=O)Nc2ccccn2)c2ccc(C)cc2)cc1` it was -5.45%; in that of `OCC1CCCCN1C(=S)Nc1ccc(Cl)cc1Cl` (stereo not shown), 11.1%.
With `O=C(NCc1ccco1)c1ccccc1-c1ccc(C(F)(F)F)cc1`, the “hERG current change (%, negative = inhibition) at 1uM” value amounted to 6.7%.
For `CC1(C)CC2=C(CO1)C(=S)NC(c1ccccc1)N2CC1CCCO1` (stereo not shown), the “hERG current change (%, negative = inhibition) at 1uM” value was 7.6%.
The figure for `Fc1ccc(C2=CC(c3ccc(Br)o3)n3ncnc3N2)cc1` (stereo not shown) is 8%; for `COc1ccc(NC(=O)N2CCC(c3nc(-c4cccs4)no3)CC2)cc1` it is 1.88%; for `CC(=O)c1c(C)nc2ccc(Br)cc2c1-c1ccccc1` it is 9.5%.
In the case of `COC(=O)c1ccc(CN(C)S(=O)(=O)c2cccs2)cc1`, the “hERG current change (%, negative = inhibition) at 1uM” value was 16.9%.
In the case of `Cc1csc(NC(=O)CS(=O)(=O)Cc2ccccc2)n1` it was 8.42%; in that of `COc1ccc(-c2nc(SCC(=O)NC3CCCC3)c(-c3ccc(OC)cc3)[nH]2)cc1`, 9.09%; in that of `N/C(CSc1ccc(Cl)cc1)=N\NC(=O)c1ccncc1`, 7.45%.
As to `Cc1ccccc1NC(=O)NC1(C(=O)NCCCN2CCOCC2)CCCCC1`, the “hERG current change (%, negative = inhibition) at 1uM” value came to 5.9%.
The figure for `CC(COc1ccc(/C=C/c2ccccc2)cc1)[N+](C)(C)C.[I-]` (stereo not shown) is -2.45%.
